Laboratory results published in the supplement of paper PMC8728848.
The list shows a part of the results.

What was measured:
Assay in all cases: glycan array binding signal (z-score within array); higher = stronger binding
Settings in all cases: glycan notation: IUPAC condensed, linker removed
Fuc(a1-2)Gal = biological target: Fuc(a1-2)Gal
Outline: (§1)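 Glycan array data came from 3228 arrays in the Consortium for Functional Glycomics database, and only arrays with an available protein sequence were kept. Glycan names were put into IUPAC-condensed notation, and columns mapping to the same glycan were averaged. The binding signal is a within-array Z-score, averaged across arrays of one protein sequence run at different concentrations or buffers and across linkers. A negative Z-score can be read as non-binding.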

Fuc(a1-2)Gal(b1-3)GalNAc = biological target: Fuc(a1-2)Gal(b1-3)GalNAc
Outline: as §1

[1] = biological target: Fuc(a1-2)Gal(b1-3)GalNAc(a1-3)[Fuc(a1-2)]Gal(b1-4)Glc
Outline: as §1

[2] = biological target: Fuc(a1-2)Gal(b1-3)GalNAc(a1-3)[Fuc(a1-2)]Gal(b1-4)GlcNAc
Outline: as §1

[3] = biological target: Fuc(a1-2)Gal(b1-3)GalNAc(b1-3)Gal
Outline: as §1

[4] = biological target: Fuc(a1-2)Gal(b1-3)GalNAc(b1-3)Gal(a1-4)Gal(b1-4)Glc
Outline: as §1

[5] = biological target: Fuc(a1-2)Gal(b1-3)GalNAc(b1-3)Gal(b1-4)Glc
Outline: as §1

[6] = biological target: Fuc(a1-2)Gal(b1-3)GalNAc(b1-4)[Neu5Ac(a2-3)]Gal(b1-4)Glc
Outline: as §1

Fuc(a1-2)Gal(b1-3)GlcNAc = biological target: Fuc(a1-2)Gal(b1-3)GlcNAc
Outline: as §1

[7] = biological target: Fuc(a1-2)Gal(b1-3)GlcNAc(b1-2)Man(a1-3)[Fuc(a1-2)Gal(b1-3)GlcNAc(b1-2)Man(a1-6)]Man(b1-4)GlcNAc(b1-4)GlcNAc
Outline: as §1

[8] = biological target: Fuc(a1-2)Gal(b1-3)GlcNAc(b1-2)Man(a1-3)[Fuc(a1-2)Gal(b1-3)GlcNAc(b1-2)Man(a1-6)]Man(b1-4)GlcNAc(b1-4)[Fuc(a1-6)]GlcNAc
Outline: as §1

[9] = biological target: Fuc(a1-2)Gal(b1-3)GlcNAc(b1-3)Gal(b1-4)Glc
Outline: as §1

[10] = biological target: Fuc(a1-2)Gal(b1-3)GlcNAc(b1-3)GalNAc
Outline: as §1

[11] = biological target: Fuc(a1-2)Gal(b1-3)GlcNAc(b1-3)[Fuc(a1-2)Gal(b1-3)GlcNAc(b1-6)]GalNAc
Outline: as §1

[12] = biological target: Fuc(a1-2)Gal(b1-3)GlcNAc(b1-3)[Gal(b1-4)GlcNAc(b1-6)]Gal(b1-4)Glc
Outline: as §1

[13] = biological target: Fuc(a1-2)Gal(b1-3)GlcNAc(b1-3)[Neu5Ac(a2-6)Gal(b1-4)GlcNAc(b1-6)]Gal(b1-4)Glc
Outline: as §1

[14] = biological target: Fuc(a1-2)Gal(b1-3)GlcNAc6S
Outline: as §1

[15] = biological target: Fuc(a1-2)Gal(b1-3)[Fuc(a1-4)]GlcNAc
Outline: as §1

[16] = biological target: Fuc(a1-2)Gal(b1-3)[Fuc(a1-4)]GlcNAc(b1-2)Man(a1-3)[Fuc(a1-2)Gal(b1-3)[Fuc(a1-4)]GlcNAc(b1-2)Man(a1-3)]Man(b1-4)GlcNAc(b1-4)GlcNAc
Outline: as §1

[17] = biological target: Fuc(a1-2)Gal(b1-3)[Fuc(a1-4)]GlcNAc(b1-2)Man(a1-3)[Fuc(a1-2)Gal(b1-3)[Fuc(a1-4)]GlcNAc(b1-2)Man(a1-6)]Man(b1-4)GlcNAc(b1-4)[Fuc(a1-6)]GlcNAc(b1-4)[Fuc(a1-6)]GlcNAc
Outline: as §1

[18] = biological target: Fuc(a1-2)Gal(b1-3)[Fuc(a1-4)]GlcNAc(b1-3)[Fuc(a1-3)[Gal(b1-4)]GlcNAc(b1-6)]Gal(b1-4)Glc
Outline: as §1

[19] = biological target: Fuc(a1-2)Gal(b1-3)[Fuc(a1-4)]GlcNAc(b1-3)[Gal(b1-4)GlcNAc(b1-6)]Gal(b1-4)Glc
Outline: as §1

[20] = biological target: Fuc(a1-2)Gal(b1-4)Fuc(a1-3)]GlcNAc(b1-2)Man(a1-3)[Fuc(a1-2)Gal(b1-4)[Fuc(a1-3)]GlcNAc(b1-2)Man(a1-6)]Man(b1-4)GlcNAc(b1-4)GlcNAc
Outline: as §1

Fuc(a1-2)Gal(b1-4)Glc = biological target: Fuc(a1-2)Gal(b1-4)Glc
Outline: as §1

Fuc(a1-2)Gal(b1-4)Glc6S = biological target: Fuc(a1-2)Gal(b1-4)Glc6S
Outline: as §1

Fuc(a1-2)Gal(b1-4)GlcNAc = biological target: Fuc(a1-2)Gal(b1-4)GlcNAc
Outline: as §1

[21] = biological target: Fuc(a1-2)Gal(b1-4)GlcNAc(b1-2)Man
Outline: as §1

[22] = biological target: Fuc(a1-2)Gal(b1-4)GlcNAc(b1-2)Man(a1-3)[Fuc(a1-2)Gal(b1-4)GlcNAc(b1-2)Man(a1-6)]Man(b1-4)GlcNAc(b1-4)GlcNAc
Outline: as §1

[23] = biological target: Fuc(a1-2)Gal(b1-4)GlcNAc(b1-2)Man(a1-3)[Fuc(a1-2)Gal(b1-4)GlcNAc(b1-2)Man(a1-6)]Man(b1-4)GlcNAc(b1-4)[Fuc(a1-6)]GlcNAc
Outline: as §1

[24] = biological target: Fuc(a1-2)Gal(b1-4)GlcNAc(b1-2)[Fuc(a1-2)Gal(b1-4)GlcNAc(b1-4)]Man(a1-3)[Fuc(a1-2)Gal(b1-4)GlcNAc(b1-2)Man(a1-6)]Man(b1-4)GlcNAc(b1-4)GlcNAc
Outline: as §1

B1: AAA (Anguilla anguilla), Q7SIC1 (protein)
chain: VIPEGYTQENVAVRGKATQSAQLRGEHAANSEASNAIDGNRDSNFYHGSCTHSSGQANPWWRVDLLQVYTITSVTITNRGDCCGERISGAEINIGQHLASNGVNNPECSVIGSMATGETKTFHCPAPMIGRYVVTYLPTSESLHLCEVEVNVDKPAAA
glycan array binding signal (z-score) (Fuc(a1-2)Gal): -0.197 | glycan array binding signal (z-score) (Fuc(a1-2)Gal(b1-3)GalNAc): -0.173 | glycan array binding signal (z-score) [1]: -0.257 | glycan array binding signal (z-score) [2]: -0.219 | glycan array binding signal (z-score) [3]: -0.151 | glycan array binding signal (z-score) [4]: -0.106 | glycan array binding signal (z-score) [5]: 0.014 | glycan array binding signal (z-score) [6]: -0.193 | glycan array binding signal (z-score) (Fuc(a1-2)Gal(b1-3)GlcNAc): -0.191 | glycan array binding signal (z-score) [7]: 0.144 | glycan array binding signal (z-score) [8]: -0.117 | glycan array binding signal (z-score) [9]: -0.189 | glycan array binding signal (z-score) [10]: -0.193 | glycan array binding signal (z-score) [11]: -0.086 | glycan array binding signal (z-score) [12]: -0.272 | glycan array binding signal (z-score) [13]: -0.119 | glycan array binding signal (z-score) [14]: -0.115 | glycan array binding signal (z-score) [15]: -0.235 | glycan array binding signal (z-score) [16]: -0.013 | glycan array binding signal (z-score) [17]: -0.126 | glycan array binding signal (z-score) [18]: -0.222 | glycan array binding signal (z-score) [19]: -0.148 | glycan array binding signal (z-score) [20]: 0.051 | glycan array binding signal (z-score) (Fuc(a1-2)Gal(b1-4)Glc): -0.111 | glycan array binding signal (z-score) (Fuc(a1-2)Gal(b1-4)Glc6S): 0.203 | glycan array binding signal (z-score) (Fuc(a1-2)Gal(b1-4)GlcNAc): -0.268 | glycan array binding signal (z-score) [21]: -0.265 | glycan array binding signal (z-score) [22]: -0.052 | glycan array binding signal (z-score) [23]: -0.291 | glycan array binding signal (z-score) [24]: 0.145
